The other results are listed elsewhere or left out. Many values rest on one well or one pass, so single values are uncertain.
System: A2058
Experiment: cell count relative to DMSO control; melanoma cells; higher = more viable cells
Settings: library dose: low library concentration; 72 h
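Note: cell number obtained by counting DAPI-stained nuclei in high-throughput microscope images with image analysis software, screen run in 1,536-well plates.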

SMILES | cell count
C#Cc1cccc(Nc2ncnc3cc(OCCOC)c(OCCOC)cc23)c1 [erlotinib] + C[As](C)SC[C@H](NC(=O)CC[C@H](N)C(=O)O)C(=O)NCC(=O)O [Darinaparsin] (first compound 0.8 µM, partner dose 0.4 µM) | 91.3%
Nc1ccn([C@@H]2O[C@H](CO)[C@@H](O)C2(F)F)c(=O)n1 [gemcitabine] + C[As](C)SC[C@H](NC(=O)CC[C@H](N)C(=O)O)C(=O)NCC(=O)O [Darinaparsin] (first compound 0.0004 µM, partner dose 0.4 µM) | 85.4%
COc1cc(N2CCC(N3CCN(C)CC3)CC2)ccc1Nc1ncc(Cl)c(Nc2ccccc2S(=O)(=O)C(C)C)n1 + O=C(Oc1ccc([N+](=O)[O-])cc1)N1CCC(C(O)(c2ccc3c(c2)OCO3)c2ccc3c(c2)OCO3)CC1 [JZL184] (first compound 0.08 µM, partner dose 1 µM) | 90.7%
Cn1c(Nc2ccc(C(F)(F)F)cc2)nc2cc(Oc3ccnc(-c4ncc(C(F)(F)F)[nH]4)c3)ccc21 + C/C(O)=C(\C#N)C(=O)Nc1cc(Br)ccc1Br [LFM-A13] (first compound 0.08 µM, partner dose 2 µM) | 98.4%
CO[C@H]1C[C@@H]2CC[C@@H](C)[C@@](O)(O2)C(=O)C(=O)N2CCCC[C@H]2C(=O)O[C@H]([C@H](C)C[C@@H]2CC[C@@H](OCCO)[C@H](OC)C2)CC(=O)[C@H](C)/C=C(\C)[C@@H](O)[C@@H](OC)C(=O)[C@H](C)C[C@H](C)/C=C/C=C/C=C/1C [everolimus] + C[As](C)SC[C@H](NC(=O)CC[C@H](N)C(=O)O)C(=O)NCC(=O)O [Darinaparsin] (first compound 0.02 µM, partner dose 0.4 µM) | 68.9%
C=CCn1c(=O)c2cnc(Nc3ccc(N4CCN(C)CC4)cc3)nc2n1-c1cccc(C(C)(C)O)n1 + O=C(Oc1ccc([N+](=O)[O-])cc1)N1CCC(C(O)(c2ccc3c(c2)OCO3)c2ccc3c(c2)OCO3)CC1 [JZL184] (first compound 0.02 µM, partner dose 1 µM) | 84.8%

System: A375
Experiment: as above
Settings: library dose: low library concentration; 72 h

SMILES | cell count
COc1ccc(COc2ccc(Cc3cnc(N)nc3N)cc2OC)cc1 + Cc1cc(SCc2sc(-c3ccc(C(F)(F)F)c(F)c3)nc2C)ccc1OCC(=O)O [GW0742] (first compound 1 µM, partner dose 2 µM) | 102%
Clc1ccc(Nc2nnc(Cc3ccncc3)c3ccccc23)cc1 [vatalanib] + C[As](C)SC[C@H](NC(=O)CC[C@H](N)C(=O)O)C(=O)NCC(=O)O [Darinaparsin] (first compound 2 µM, partner dose 0.4 µM) | 92.7%
COc1ccc(COc2ccc(Cc3cnc(N)nc3N)cc2OC)cc1 + C/C(O)=C(\C#N)C(=O)Nc1cc(Br)ccc1Br [LFM-A13] (first compound 1 µM, partner dose 2 µM) | 89.1%
COCC[n+]1c2c(n(Cc3cnccn3)c1C)C(=O)c1ccccc1C2=O + Cc1cc(SCc2sc(-c3ccc(C(F)(F)F)c(F)c3)nc2C)ccc1OCC(=O)O [GW0742] (first compound 0.0004 µM, partner dose 2 µM) | 91%
O=C(CCCCCCC(=O)Nc1ccccc1)NO [vorinostat] + Cc1cc(SCc2sc(-c3ccc(C(F)(F)F)c(F)c3)nc2C)ccc1OCC(=O)O [GW0742] (first compound 0.08 µM, partner dose 2 µM) | 103%
Cc1cc(Nc2cc(N3CCN(C)CC3)nc(Sc3ccc(NC(=O)C4CC4)cc3)n2)n[nH]1 [Tozasertib] + C[C@]12O[C@H](C[C@]1(O)CO)n1c3ccccc3c3c4c(c5c6ccccc6n2c5c31)CNC4=O [Lestaurtinib] (first compound 0.006 µM, partner dose 0.004 µM) | 116%
O=C(O)c1ccc2c(c1)nc(Nc1cccc(Cl)c1)c1ccncc12 + C[As](C)SC[C@H](NC(=O)CC[C@H](N)C(=O)O)C(=O)NCC(=O)O [Darinaparsin] (first compound 0.4 µM, partner dose 0.4 µM) | 87.1%
Cn1c(Nc2ccc(C(F)(F)F)cc2)nc2cc(Oc3ccnc(-c4ncc(C(F)(F)F)[nH]4)c3)ccc21 + Cc1cc(SCc2sc(-c3ccc(C(F)(F)F)c(F)c3)nc2C)ccc1OCC(=O)O [GW0742] (first compound 0.08 µM, partner dose 2 µM) | 52.9%
C#Cc1cccc(Nc2ncnc3cc(OCCOC)c(OCCOC)cc23)c1 [erlotinib] + O=C(Oc1ccc([N+](=O)[O-])cc1)N1CCC(C(O)(c2ccc3c(c2)OCO3)c2ccc3c(c2)OCO3)CC1 [JZL184] (first compound 0.8 µM, partner dose 1 µM) | 89.7%
Cc1cc(Nc2cc(N3CCN(C)CC3)nc(Sc3ccc(NC(=O)C4CC4)cc3)n2)n[nH]1 [Tozasertib] + Cn1cc(C2=C(c3cn(C4CCN(Cc5ccccn5)CC4)c4ccccc34)C(=O)NC2=O)c2ccccc21 [Enzastaurin] (first compound 0.006 µM, partner dose 0.8 µM) | 80.7%
O=C(CCCCCCC(=O)Nc1ccccc1)NO [vorinostat] + C/C(O)=C(\C#N)C(=O)Nc1cc(Br)ccc1Br [LFM-A13] (first compound 0.08 µM, partner dose 2 µM) | 98.3%
Oc1cc(-c2nc(-c3ccccc3)[nH]c2-c2ccncc2)ccc1Cl + C/C(O)=C(\C#N)C(=O)Nc1cc(Br)ccc1Br [LFM-A13] (first compound 0.2 µM, partner dose 2 µM) | 72.6%
c1cc(-c2cnn3cc(-c4ccc(OCCN5CCCCC5)cc4)cnc23)ccn1 [Dorsomorphin] + O=C(Oc1ccc([N+](=O)[O-])cc1)N1CCC(C(O)(c2ccc3c(c2)OCO3)c2ccc3c(c2)OCO3)CC1 [JZL184] (first compound 0.4 µM, partner dose 1 µM) | 93.5%
CN1CCN(c2ccc3nc(-c4c(N)c5c(F)cccc5[nH]c4=O)[nH]c3c2)CC1 [Dovitinib] + C[As](C)SC[C@H](NC(=O)CC[C@H](N)C(=O)O)C(=O)NCC(=O)O [Darinaparsin] (first compound 0.1 µM, partner dose 0.4 µM) | 88.7%
Cc1cc(Nc2cc(N3CCN(C)CC3)nc(Sc3ccc(NC(=O)C4CC4)cc3)n2)n[nH]1 [Tozasertib] + C[As](C)SC[C@H](NC(=O)CC[C@H](N)C(=O)O)C(=O)NCC(=O)O [Darinaparsin] (first compound 0.006 µM, partner dose 0.4 µM) | 94.1%
C#Cc1cccc(Nc2ncnc3cc(OCCOC)c(OCCOC)cc23)c1 [erlotinib] + C/C(O)=C(\C#N)C(=O)Nc1cc(Br)ccc1Br [LFM-A13] (first compound 0.8 µM, partner dose 2 µM) | 86.4%
Oc1nc(-c2ccc(C(F)(F)F)cc2)nc2c1CSCC2 + O=C(Oc1ccc([N+](=O)[O-])cc1)N1CCC(C(O)(c2ccc3c(c2)OCO3)c2ccc3c(c2)OCO3)CC1 [JZL184] (first compound 2 µM, partner dose 1 µM) | 94.2%
C[C@@H]1CCN(C(=O)CC#N)C[C@@H]1N(C)c1ncnc2[nH]ccc12 + Cc1cc(SCc2sc(-c3ccc(C(F)(F)F)c(F)c3)nc2C)ccc1OCC(=O)O [GW0742] (first compound 1 µM, partner dose 2 µM) | 107%
COc1cc2ncnc(Nc3ccc(Oc4ccccc4)cc3)c2cc1OC + O=C(Oc1ccc([N+](=O)[O-])cc1)N1CCC(C(O)(c2ccc3c(c2)OCO3)c2ccc3c(c2)OCO3)CC1 [JZL184] (first compound 2 µM, partner dose 1 µM) | 95.6%
C[C@@H]1CCN(C(=O)CC#N)C[C@@H]1N(C)c1ncnc2[nH]ccc12 + C/C(O)=C(\C#N)C(=O)Nc1cc(Br)ccc1Br [LFM-A13] (first compound 1 µM, partner dose 2 µM) | 78.2%
COCC[n+]1c2c(n(Cc3cnccn3)c1C)C(=O)c1ccccc1C2=O + C/C(O)=C(\C#N)C(=O)Nc1cc(Br)ccc1Br [LFM-A13] (first compound 0.0004 µM, partner dose 2 µM) | 103%
Cc1cc(Nc2cc(N3CCN(C)CC3)nc(Sc3ccc(NC(=O)C4CC4)cc3)n2)n[nH]1 [Tozasertib] + N.N.[Cl][Pt][Cl] [cisplatin] (first compound 0.006 µM, partner dose 1.6 µM) | 100%
COc1cc2ncnc(Nc3ccc(Oc4ccccc4)cc3)c2cc1OC + C/C(O)=C(\C#N)C(=O)Nc1cc(Br)ccc1Br [LFM-A13] (first compound 2 µM, partner dose 2 µM) | 90.6%
O=C(O)C(=O)Nc1sc2c(c1C(=O)O)CCNC2 + O=C(Oc1ccc([N+](=O)[O-])cc1)N1CCC(C(O)(c2ccc3c(c2)OCO3)c2ccc3c(c2)OCO3)CC1 [JZL184] (first compound 1.66667 µM, partner dose 1 µM) | 102%
CC(C)C[C@H](NC(=O)[C@H](Cc1ccccc1)NC(=O)c1cnccn1)B(O)O [Bortezomib] + N.N.[Cl][Pt][Cl] [cisplatin] (first compound 0.001 µM, partner dose 1.6 µM) | 101%
CC(C)C[C@H](NC(=O)[C@H](Cc1ccccc1)NC(=O)c1cnccn1)B(O)O [Bortezomib] + C[As](C)SC[C@H](NC(=O)CC[C@H](N)C(=O)O)C(=O)NCC(=O)O [Darinaparsin] (first compound 0.001 µM, partner dose 0.4 µM) | 114%
